# Data published in PubChem BioAssay AID2147 (National Center for Advancing Translational Sciences (NCATS), 2009).
# Screen size: about 230,000 compounds; about 3,600 (1.6%) were called active. The shares of active, inactive and inconclusive entries below differ from those in the screen. Calls follow the shape of the dose curve; as a rule, active = well fitted inhibition curve with a large enough effect (not every such curve was filed as active); inconclusive = small, poorly fitted or top-dose-only effect, or another doubt; inactive = no such curve, though single readings can be large or run the other way. Potencies of inconclusive entries are doubtful fits and often do not repeat.
# Target: Lysine-specific demethylase 4E (Homo sapiens) (UniProt B2RXH2)
# Assay: qHTS Assay for Inhibitors of Human Jumonji Domain Containing 2E (JMJD2E)
# Settings: JMJD2E catalytic domain, FDH-coupled NADH fluorescence (FDH is formaldehyde dehydrogenase); series mostly up to 57.1 µM; activity change, negative = inhibition: at the top concentration
# Also: nearly all actives have a fitted effect of over 50% in size.
# 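For activity change, negative = inhibition in this document: 0% = wells with enzyme and -100% = buffer wells without enzyme.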
# Potency is read from the fitted curve at half-maximal effect; tags tell the direction and shape of the fitted curve.
# Sequence of UniProt B2RXH2 (B2RXH2 whole entry, looked up, the tested form may be a part): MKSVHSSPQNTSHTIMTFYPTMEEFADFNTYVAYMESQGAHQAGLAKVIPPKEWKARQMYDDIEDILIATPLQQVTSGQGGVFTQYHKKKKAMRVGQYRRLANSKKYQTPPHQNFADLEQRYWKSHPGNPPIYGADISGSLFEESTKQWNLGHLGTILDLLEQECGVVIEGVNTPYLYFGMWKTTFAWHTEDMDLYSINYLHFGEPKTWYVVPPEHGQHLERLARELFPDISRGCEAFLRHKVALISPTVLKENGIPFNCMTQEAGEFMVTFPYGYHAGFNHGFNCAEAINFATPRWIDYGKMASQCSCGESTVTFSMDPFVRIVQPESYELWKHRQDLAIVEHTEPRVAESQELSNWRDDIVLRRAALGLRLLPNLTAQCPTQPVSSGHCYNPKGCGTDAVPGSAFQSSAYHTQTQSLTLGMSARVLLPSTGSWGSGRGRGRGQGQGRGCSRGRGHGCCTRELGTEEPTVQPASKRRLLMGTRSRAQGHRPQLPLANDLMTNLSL
Compound,Potency,"activity change, negative = inhibition"
COc1ccc(Cl)cc1C(=O)Nc1cccc(-c2ccc3nncn3n2)c1,active: 14.1 µM,–
Cc1ccc(N2C(=N)/C(=C3/Nc4ccccc4S3)C(c3ccccc3)C2=O)cc1 (stereo not given),–,inactive: 4.13%
CC(C)(C)OC(=O)N/N=C/c1ccc(N2CCOCC2)s1,"inconclusive: 31.6 µM [inhibitor, single point]",–
O=C(COC(=O)c1cccnc1Nc1ccccc1F)NCc1ccc2c(c1)OCO2,"inconclusive: 25.1 µM [inhibitor, single point]",–
COc1ccc(N2CCN(CCCNC(=O)Nc3ccccc3)CC2)cc1,"inconclusive: 39.8 µM [inhibitor, single point]",–
Cc1ccc(C(=O)NC(=S)NCC2CCCO2)cc1[N+](=O)[O-] (stereo not given),–,inactive: 3.04%
Cc1ncc(CO)c(/C=N/NC(=O)c2cc3c(s2)CCCC3)c1O,"inconclusive: 35.5 µM [inhibitor, partial curve]",–
CCN(c1ccccc1)S(=O)(=O)c1ccc(C(=O)Nc2nnc(C3CC3)o2)cc1,"inconclusive: 35.5 µM [inhibitor, single point]",–
COc1cc(OC)c(C2CC(=O)N3CN(c4ccccc4)CSC3=C2C#N)cc1OC (stereo not given),"inconclusive: 35.5 µM [inhibitor, single point]",–
Cc1cc(C)c2nc(N3CCCN(C(=O)c4cnccn4)CC3)c(C#N)cc2c1,"inconclusive: 28.2 µM [inhibitor, partial curve]",–
CC(=O)c1ccc(NC(=O)Nc2cccc(Cl)c2)cc1,–,inactive: 0.371%
O=C(CSCc1c(F)cccc1Cl)NCc1ccncc1,–,inactive: -14.9%
COCCOc1ccc(C(F)(F)F)cc1NC(=O)c1ccccc1F,"inconclusive: 31.6 µM [inhibitor, single point]",–
COc1cccc2c1C(=O)C=C(C)C2=O,–,inactive: -13%
O=C(O)CCN1C(=O)c2ccc(NC(=O)c3cccs3)cc2C1=O,"inconclusive: 25.1 µM [inhibitor, partial curve]",–
CCOC(=O)c1sc(=S)n(C)c1NC(=O)c1ccc(OC)cc1,"inconclusive: 12.6 µM [inhibitor, partial curve]",–
Cc1csc(NC(=O)c2sc3nc(-c4cccs4)ccc3c2N)n1,"inconclusive: 12.6 µM [inhibitor, partial curve]",–
CCOC(=O)C1=C(C)Nc2nc(SCC)nn2C1c1ccc(OC)cc1 (stereo not given),–,inactive: -21.2%
Cc1ccc(C)c(-n2c(=O)c(C#N)cc3c(=O)n4ccccc4nc32)c1,"inconclusive: 25.1 µM [inhibitor, partial curve]",–
COc1ccc(CCNCC(O)COc2cccc(Br)c2)cc1OC (stereo not given),"inconclusive: 22.4 µM [inhibitor, single point]",–
